Results as given in PubChem BioAssay (NCATS).
The shares of active, inactive and inconclusive entries below differ from those in the screen. Potencies of inconclusive entries are doubtful fits and often do not repeat. Activity calls are given as the source filed them. Unless noted, calls follow the shape of the dose curve; as a rule, active = well fitted inhibition curve with a large enough effect; inconclusive = small, poorly fitted or top-dose-only effect; inactive = no such curve, though single readings can be large or run the other way.

Legend:
[1] = target: Aldehyde dehydrogenase, mitochondrial (Homo sapiens) (UniProt P05091); test: qHTS for Inhibitors of the Aldehyde Dehydrogenase Family (ALDH2) Confirmatory screens (AID 2061303; active = well fitted inhibition curve with a large enough effect; inconclusive = small, poorly fitted or top-dose-only effect; inactive = no such curve, though single readings can be large or run the other way; title and protocol of this record describe different tests; also: nearly all actives have a fitted effect of over 45% in size); details: ALDH inhibition qHTS; activity change, negative = inhibition: at 45.4 µM (top of the series)
[2] = qHTS for Inhibitors of the Aldehyde Dehydrogenase Family (ALDH1A2, ALDH1A3, ALDH2, ALDH3A1) (AID 2061307); details: ALDH inhibition qHTS; activity change, negative = inhibition: at 50.3 µM (top of the series) unless noted; also: nearly all actives have a fitted effect of over 50% in size; as to Potency: test system not described further here
[3] = target: Retinaldehyde dehydrogenase 3 (Homo sapiens) (UniProt P47895); test: qHTS for Inhibitors of the Aldehyde Dehydrogenase Family (ALDH1A3) Confirmatory screens (AID 2061311); details: activity change, negative = inhibition: at 46 µM (top of the series); also: nearly all actives have a fitted effect of over 60% in size
[4] = target: Retinal dehydrogenase 2 (Homo sapiens) (UniProt O94788); test: qHTS for Inhibitors of the Aldehyde Dehydrogenase Family (ALDH1A2) Confirmation screens (AID 2061314); details: activity, negative = inhibition: at 45.9 µM (top of the series) unless noted; also: nearly all actives have a fitted effect of over 65% in size
[5] = target: Aldehyde dehydrogenase 1A1 (Homo sapiens) (UniProt P00352); test: qHTS for Inhibitors of the Aldehyde Dehydrogenase Family (ALDH1A1) Confirmatory screens (AID 2061316); details: activity change, negative = inhibition: at 47.3 µM (top of the series); also: nearly all actives have a fitted effect of over 65% in size
Potency is read from the fitted curve at half-maximal effect; tags tell the direction and shape of the fitted curve.

SMILES | Potency [1] | Potency [2] | Potency [3] | Potency [4] | Potency [5]
O=C(Nc1cccc(C(F)(F)F)c1)c1cccc(C(=O)Nc2cccc(C(F)(F)F)c2)c1 | inactive | inactive | inactive | inconclusive: 7.08 µM [inhibitor, full curve] | inactive
CC1(C)CC[C@]2(C(=O)O[C@@H]3O[C@H](CO)[C@@H](O)[C@H](O)[C@H]3O)CC[C@]3(C)C(=CCC4[C@@]5(C)C[C@@H](O)[C@H](O)[C@@](C)(CO)C5CC[C@]43C)C2[C@@H]1O (stereo not given in full) | inconclusive: 11.9 µM [inhibitor, partial curve, poor fit] | inconclusive: 3.75 µM [inhibitor, partial curve, poor fit] | inconclusive: 10.6 µM [inhibitor, single point] | inactive | inconclusive: 10.6 µM [inhibitor, partial curve, poor fit]
N#Cc1cccc(NC(=S)N[C@H]2CO[C@H]3[C@@H]2OC[C@@H]3n2nnnc2Oc2cccc(N3CCOCC3)c2)c1 | inactive | active: 6.31 µM | inconclusive: 16.2 µM [inhibitor, partial curve] | inactive | active: 10.2 µM
c1ccc(-n2cc(-c3nnc4n3CCCCC4)cn2)cc1 | inconclusive: 20.1 µM [inhibitor, partial curve, poor fit] | inactive | active: 14.2 µM | active: 12.7 µM | inactive
CC(C)c1ccccc1-c1nc2c(c(NCc3ccc(-c4cccnc4)cc3)n1)CCNC2 | inactive | inactive | inconclusive: 15.9 µM [inhibitor, partial curve] | inactive | inactive
Nc1nnc(-c2cccc3ccccc23)o1 | inactive | inactive | inactive | inconclusive: 35.7 µM [inhibitor, partial curve, poor fit] | inactive
CCOc1cc(CNc2ccc(C(=O)O)cc2)ccc1OCc1ccccc1 | active: 2 µM | inactive | active: 0.199 µM | active: 2.57 µM | active: 6.47 µM
Cc1cnc(-c2ccccc2C(F)F)nc1NCc1ccc(-n2ccnn2)cc1 | active: 25.1 µM | active: 4.47 µM | inconclusive: 12.7 µM [inhibitor, partial curve] | inconclusive: 4 µM [inhibitor, partial curve] | inconclusive: 12.7 µM [inhibitor, partial curve, poor fit]
N#Cc1nc(Nc2cccc(F)c2)nc(NC2CCCC2)n1 | active: 1.78 µM | active: 3.55 µM | inconclusive: 0.891 µM [inhibitor, full curve, poor fit] | inconclusive: 6.34 µM [inhibitor, full curve] | inconclusive: 0.0447 µM [inhibitor, full curve, poor fit]
CC(=O)c1ccc(N2CCN(C(=O)Nc3ccc(C(C)C)cc3)CC2)cc1 | inactive | inactive | inconclusive: 6.31 µM [inhibitor, full curve, poor fit] | inconclusive: 16.2 µM [inhibitor, partial curve] | active: 3.24 µM
COC(=O)c1ccc(NC(=O)CN(c2cccc(C(F)(F)F)c2)S(C)(=O)=O)cc1 | inconclusive: 15.8 µM [inhibitor, partial curve] | inactive | inconclusive: 16.2 µM [inhibitor, partial curve] | inconclusive: 22.9 µM [inhibitor, partial curve, poor fit] | inconclusive: 18.2 µM [inhibitor, partial curve]
Cc1ccc(C(=O)NCC(c2ccc3c(c2)OCO3)N2CCN(c3ccc(F)cc3)CC2)cc1 (stereo not given) | inconclusive: 0.251 µM [inhibitor, full curve, poor fit] | inactive | inactive | inactive | inactive
Cc1ccc2nc3sc(C(=O)N4CCC(C(N)=O)CC4)cc3cc2c1 | inconclusive: 0.501 µM [inhibitor, full curve, poor fit] | inconclusive: 0.0631 µM [inhibitor, full curve, poor fit] | inconclusive: 1.41 µM [inhibitor, full curve, poor fit] | inconclusive: 20.1 µM [inhibitor, partial curve, poor fit] | inconclusive: 11.3 µM [inhibitor, partial curve]
